Test results published in a collection of fitness landscapes (doi:10.1126/science.1257360).
The list shows a part of the results.

B1: PhoQ; a variant is named by its letters at X, in order, P23837 (parent)
chain: MKKLLRLFFPLSLRVRFLLATAAVVLVLSLAYGMVALIGYSVSFDKTTFRLLRGESNLFYTLAKWENNKLHVELPENIDKQSPTMTLIYDENGQLLWAQRDVPWLMKMIQPDWLKSNGFHEIEADVNDTSLLLSGDHSIQQQLQEVREDDDDAEMTHSVAVNVYPATSRMPKLTIVVVDTIPVELKSSYMVWSWFIYVLSANLLLVIPLLWVAAWWSLRPIEALAKEVRELEEHNRELLNPATTRELTSLVRNLNRLLKSERERYDKYRTTLTDLTHSLKTPLXXLQXXLRSLRSEKMSVSDAEPVMLEQISRISQQIGYYLHRASMRGGTLLSRELHPVAPLLDNLTSALNKVYQRKGVNISLDISPEISFVGEQNDFVEVMGNVLDNACKYCLEFVEISARQTDEHLYIVVEDDGPGIPLSKREVIFDRGQRVDTLRPGQGVGLAVAREITEQYEGKIVAGESMLGGARMEVIFGRQHSAPKDE

Variants of: B1
Test: enrichment ratio after two sorts for PhoP signalling (ratio (wild type AVST 3.29)); higher = more functional
Conditions: with PhoP (E. coli)

Row | Variant | enrichment ratio
1 | MIFA | ≤ 0.25
2 | TVGI | 7.34
3 | LKQE | ≤ 0.25
4 | QLIR | ≤ 0.25
5 | QNMQ | ≤ 0.25
6 | WALD | ≤ 0.25
7 | FGIP | ≤ 0.25
8 | FMGI | ≤ 0.25
9 | RCQV | ≤ 0.25
10 | RVIQ | ≤ 0.25
11 | VHGV | ≤ 0.25
12 | ITQI | ≤ 0.25
13 | NSFM | ≤ 0.25
14 | QGVI | ≤ 0.25
15 | GACF | ≤ 0.25
16 | YDLV | ≤ 0.25
17 | MKSQ | ≤ 0.25
18 | VNKE | ≤ 0.25
19 | RYLY | ≤ 0.25
20 | PEGG | ≤ 0.25
21 | QFRR | ≤ 0.25
22 | GCMR | ≤ 0.25
23 | YMTI | ≤ 0.25
24 | THFY | ≤ 0.25
25 | LDGK | ≤ 0.25

Row | Variant | enrichment ratio
26 | RISM | ≤ 0.25
27 | WDEA | ≤ 0.25
28 | YSVP | ≤ 0.25
29 | VIGT | ≤ 0.25
30 | EKCL | ≤ 0.25
31 | QMFG | ≤ 0.25
32 | NKGP | ≤ 0.25
33 | YKGV | ≤ 0.25
34 | AHGP | ≤ 0.25
35 | ITVP | ≤ 0.25
36 | SNDT | ≤ 0.25
37 | RHIR | ≤ 0.25
38 | KRWN | ≤ 0.25
39 | ESPV | ≤ 0.25
40 | MVFT | ≤ 0.25
41 | GEYM | ≤ 0.25
42 | ILRN | ≤ 0.25
43 | SEVV | 13.1
44 | NSRK | ≤ 0.25
45 | KKWP | ≤ 0.25
46 | GVSA | ≤ 0.25
47 | EQVA | ≤ 0.25
48 | ETVL | ≤ 0.25
49 | FFAL | ≤ 0.25
50 | VGYT | ≤ 0.25

Row | Variant | enrichment ratio
51 | AQMY | ≤ 0.25
52 | GEHQ | ≤ 0.25
53 | TSCM | 25.8
54 | GYQG | ≤ 0.25
55 | YQLE | 2.6
56 | DVAE | ≤ 0.25
57 | MGAD | ≤ 0.25
58 | TWWS | ≤ 0.25
59 | GDPA | ≤ 0.25
60 | SIKQ | ≤ 0.25
61 | GSQI | ≤ 0.25
62 | VCMK | ≤ 0.25
63 | QYHY | ≤ 0.25
64 | KSMQ | ≤ 0.25
65 | MPLK | ≤ 0.25
66 | DVGC | ≤ 0.25
67 | GQIL | 4.32
68 | EQLR | ≤ 0.25
69 | EARV | ≤ 0.25
70 | IKTC | ≤ 0.25
71 | QGLY | ≤ 0.25
72 | QRKS | ≤ 0.25
73 | VQGH | ≤ 0.25
74 | NNEH | ≤ 0.25
75 | LNQL | ≤ 0.25

Row | Variant | enrichment ratio
76 | QPIF | ≤ 0.25
77 | KSCS | ≤ 0.25
78 | GEFP | ≤ 0.25
79 | WNSD | ≤ 0.25
80 | GIVP | ≤ 0.25
81 | RMSR | ≤ 0.25
82 | LIAV | ≤ 0.25
83 | KNWY | ≤ 0.25
84 | MGTN | ≤ 0.25
85 | QSNE | ≤ 0.25
86 | PTRH | ≤ 0.25
87 | HHKF | ≤ 0.25
88 | QGFF | 13.9
89 | RTGV | ≤ 0.25
90 | PSYP | ≤ 0.25
91 | EINL | ≤ 0.25
92 | YVML | 0.518
93 | KMMH | ≤ 0.25
94 | RALW | ≤ 0.25
95 | TGPQ | ≤ 0.25
96 | KFHF | ≤ 0.25
97 | RAKV | ≤ 0.25
98 | HQMA | ≤ 0.25
99 | QHHE | ≤ 0.25
100 | DYSS | ≤ 0.25

Row | Variant | enrichment ratio
101 | YTNR | ≤ 0.25
102 | VYCI | ≤ 0.25
103 | HFHF | ≤ 0.25
104 | ICQK | ≤ 0.25
105 | CSCS | ≤ 0.25
106 | PWNR | ≤ 0.25
107 | MRSA | ≤ 0.25
108 | SRFF | ≤ 0.25
109 | NGTN | ≤ 0.25
110 | VWFE | ≤ 0.25
111 | HPSA | ≤ 0.25
112 | DNRI | ≤ 0.25
113 | GKWP | ≤ 0.25
114 | CIVM | ≤ 0.25
115 | HQMP | ≤ 0.25
116 | GTLK | ≤ 0.25
117 | FETC | ≤ 0.25
118 | AQAF | 0.843
119 | FGIM | 4.76
120 | LPKS | ≤ 0.25
121 | DHFG | ≤ 0.25
122 | WRFF | ≤ 0.25
123 | QLRP | ≤ 0.25
124 | KAQV | ≤ 0.25
125 | ARTV | ≤ 0.25

Row | Variant | enrichment ratio
126 | RKSQ | ≤ 0.25
127 | TYSI | 0.296
128 | HAMW | ≤ 0.25
129 | DNTP | ≤ 0.25
130 | HVLQ | ≤ 0.25
131 | PKVV | ≤ 0.25
132 | RISI | ≤ 0.25
133 | DCTQ | ≤ 0.25
134 | NFKS | ≤ 0.25
135 | ICWN | ≤ 0.25
136 | HDTY | ≤ 0.25
137 | SGFW | ≤ 0.25
138 | GFIG | ≤ 0.25
139 | DAQI | ≤ 0.25
140 | KVTH | ≤ 0.25
141 | PNPD | ≤ 0.25
142 | FRWR | ≤ 0.25
143 | VQQI | ≤ 0.25
144 | KSLH | ≤ 0.25
145 | RKQA | ≤ 0.25
146 | SSPN | ≤ 0.25
147 | VFTA | ≤ 0.25
148 | VCWE | ≤ 0.25
149 | HVFH | ≤ 0.25
150 | QQHP | ≤ 0.25

Row | Variant | enrichment ratio
151 | FACS | ≤ 0.25
152 | NSFE | ≤ 0.25
153 | KRAH | ≤ 0.25
154 | SFTH | ≤ 0.25
155 | LTFF | ≤ 0.25
156 | GIFQ | ≤ 0.25
157 | WIHV | ≤ 0.25
158 | AVMQ | 9.59
159 | YMEP | ≤ 0.25
160 | RLWP | ≤ 0.25
161 | LLII | ≤ 0.25
162 | KVHW | ≤ 0.25
163 | PTVV | ≤ 0.25
164 | NIHL | 1.27
165 | TGKF | ≤ 0.25
166 | MVFY | 0.739
167 | TVEN | ≤ 0.25
168 | MLFQ | ≤ 0.25
169 | ADPT | ≤ 0.25
170 | LRAH | ≤ 0.25
171 | ERKG | ≤ 0.25
172 | NHTK | ≤ 0.25
173 | LCTL | ≤ 0.25
174 | QWKY | ≤ 0.25
175 | QFSM | ≤ 0.25

Row | Variant | enrichment ratio
176 | DKYD | ≤ 0.25
177 | VSLC | 5.07
178 | GRRQ | ≤ 0.25
179 | SDVF | ≤ 0.25
180 | KIDG | ≤ 0.25
181 | AVNY | ≤ 0.25
182 | YPTP | ≤ 0.25
183 | MLMC | ≤ 0.25
184 | IMCP | ≤ 0.25
185 | NCPP | ≤ 0.25
186 | YPTF | ≤ 0.25
187 | DLIY | ≤ 0.25
188 | GCTQ | ≤ 0.25
189 | KRDY | ≤ 0.25
190 | IWCH | ≤ 0.25
191 | EIWP | ≤ 0.25
192 | FHPA | ≤ 0.25
193 | SDTA | ≤ 0.25
194 | PEQD | ≤ 0.25
195 | LMDL | ≤ 0.25
